# Screen size: about 210,000 compounds; about 5,900 (2.8%) were called active. Inconclusive means that the source gave no clear call. Such entries were picked first, then a sample of the others. The call rests on the fitted dose curve; in most records, active means well fitted activation curve with a large enough effect; inconclusive means small, poorly fitted or top-dose-only effect; inactive means no such curve, though single readings can be large or run the other way. A potency beside an inconclusive call is a rough fit, not a confirmed value.
# Assay: qHTS Assay for Enhancers of SMN2 Splice Variant Expression; further: nearly all actives have a fitted effect of over 55% in size
# Conditions: HEK293 SMN2-luciferase splicing reporter, luminescence, 30-36 h; series mostly up to 46.1 µM
# From the text: NIH Chemical Genomics Center [NCGC] NIH Molecular Libraries Probe Production centers Network [MLPCN] MLPCN Grant: R03 MH084179-01 Assay Submitter (PI): Elliot Androphy NCGC Assay Overview: Spinal muscular atrophy (SMA) is caused by insufficient levels of the survival motor neuron protein SMN. The SMN locus on chromosome 5q13 contains two inverted copies of SMN called SMN1 and SMN2 which are 99% identical at the amino acid level. SMN1 is a fully functional protein and SMN2 skips exon 7 90% of the time. Skipping of exon 7 produces non-functional protein product. 10% of the SMN2 protein includes exon 7 and is fully functional. In the SMA disease state, mutations in the SMN1 locus are the cause of the disease state. Because only 10% of SMN2 is of the fully functional form, it is not sufficient to overcome the deficiency produced by the loss of the SMN1 product. A therapy that either increase the amount of SMN2 product made or to increase the inclusion of exon 7 has been proposed for the treatment of SMA. We have designed an assay to identify small molecules that can increase the amount of functional SMN2 product by appending a luciferase reporter gene after the native SMN2 gene, such that inclusion of exon 7 in the expressed product places the luciferase sequence in frame, thus generating functional luciferase enzyme.
# NCGC Assay Protocol Summary: This screen utilizes a luciferase reporter gene assay, combining the promoter and splicing based cassettes in tandem with the major portion of the native SMN2 cDNA, and then transfected into HEK293 cells. Compounds that increase luciferase signal presumably enhance expression of the functional SMN2 splice variant. Passaging media contained DMEM w/ glutamax (+phenol red) 10% FCS, 1x pen/strep, 200 ug/ml hygro, 1x sodium pyruvate. Assay media contained DMEM w/ glutamax (-phenol red) 10% FCS, 1x pen strep, 1x pyruvate Sequence, Parameter, Value, Description (1) Cells, […], 2000 cells/well, 1536 TC treated White solid bottom plate (2) Time, 10-12 hours, 37C 5% CO2 (3) Compound, 23 nl, MLSMR Library (4) Control Compound, 23 nL, Sodium butyrate st 4.5mM (final) conc (5) Time, 30-36 hours, 37C 5% CO2 (6) Reagent, 3 ul, One Glo (TM) from Promega (7) Time, 5-15 minutes, Room temp (8) Detector, Viewlux: luminescent read, 60 second integration, high speed 2x binning Keywords: Spinal muscular atrophy, SMA, SMN2, high throughput screening, MLSMR, MLPCN, NIH Roadmap, qHTS and NCGC
# Potency means the concentration at half of the fitted maximal effect; tags describe the fitted curve by direction and shape.
row,SMILES,Potency
1,CCOC(=O)/C(=N/Nc1ccccc1)c1csc(Nc2ccccc2)n1,inactive
2,Cc1ccc(C(=O)c2c[nH]c(C(=O)NCc3cccnc3)c2)cc1,inactive
3,O=C(CN1CCN(c2ccccc2)CC1)Nc1ccc2c(c1)CCC2,"inconclusive: 6.31 µM [activator, single point]"
4,O=C(Cc1cccs1)Nc1ccccn1,"inconclusive: 7.08 µM [activator, full curve, poor fit]"
5,O=C(Nc1cc(C(=O)N2CCOCC2)cc(C(=O)N2CCOCC2)c1)c1cc(F)c(F)cc1Cl,"inconclusive: 0.0316 µM [activator, full curve, poor fit]"
6,O=C(c1ccccc1)c1cnc(-c2ccccc2)s1,active: 12.6 µM
7,Clc1nc2ccccc2nc1Cl,inactive
8,Cc1ccc(-c2cc(C(=O)NC3=NCCS3)c3ccccc3n2)cc1C,active: 14.1 µM
9,COc1cc(/C=N/NC(=O)c2ccoc2C)ccc1O,"inconclusive: 35.5 µM [activator, single point]"
10,CCN(CC)C(=O)c1cc2c(=O)n3ccccc3nc2s1,"inconclusive: 11.2 µM [activator, single point]"
11,O=C(/C=C/Nc1ccc(F)cc1F)c1ccco1,active: 2.82 µM
12,CCOc1ccc(N(CC(=O)Nc2ccccc2C(=O)NCc2ccco2)S(C)(=O)=O)cc1,"inconclusive: 0.0025 µM [activator, full curve, poor fit]"
13,CCC(=O)Nc1cccc(-c2cn3ccccc3n2)c1,"inconclusive: 12.6 µM [activator, partial curve, poor fit]"
14,Oc1ccc(Cl)cc1-c1cc(-c2ccccc2Cl)[nH]n1,"inconclusive: 11.2 µM [activator, single point]"
15,Cc1c(CNCCc2ccc(S(N)(=O)=O)cc2)c(C(=O)O)c(C)n1Cc1ccc(Cl)cc1,inactive
16,O=C(CSc1nnc(-c2ccco2)n1-c1ccccc1)N1CCOCC1,"inconclusive: 0.0032 µM [activator, full curve, poor fit]"
17,COCc1cc(C)nc2sc3c(c12)NC(c1ccc(O)cc1)N(c1ccc(C)cc1)C3=O (stereo not drawn),"inconclusive: 17.8 µM [activator, single point]"
18,Cc1cc(C)c2c(n1)nn1c(NCCOCCO)cc(C)nc21,"inconclusive: 14.1 µM [activator, partial curve, poor fit]"
19,CCc1nnc(NS(=O)(=O)c2ccc(Nc3ccc4nonc4c3[N+](=O)[O-])cc2)s1,inactive
20,CC(=O)c1c(C)[nH]c(C(=O)N2CCc3ccccc32)c1C,"inconclusive: 11.2 µM [activator, partial curve, poor fit]"
21,COc1ccc(N2C(=O)CCC2=O)c(OC)c1,inactive
22,COc1ccc(NC(=S)Nc2ccccn2)c(OC)c1,active: 11.2 µM
23,O=C(CCCN1C(=O)c2cccc3cccc(c23)C1=O)N1CCN(c2ccccc2)CC1,inactive
24,CCOc1cc(C)cc2oc(=O)cc(-c3ccccc3)c12,"inconclusive: 6.31 µM [activator, single point]"

row,SMILES,Potency
1,O=C(O)CCC(=O)Nc1ccccc1C(=O)N1CCN(c2ccc(Cl)cc2)CC1,"inconclusive: 12.6 µM [activator, single point]"
2,COc1cc(/C=N/NC(=S)Nc2cccc(S(=O)(=O)N(C)C)c2)ccc1O,inactive
3,COc1ccc(C(=O)Oc2cc(-c3ccc4c(c3)OCO4)cc(=O)c3c(C)oc(C)c23)cc1,inactive
4,CCCNC(=O)Cn1cnc2sc(C(=O)Nc3ccc4c(c3)OCO4)c(C)c2c1=O,"inconclusive: 20 µM [activator, single point]"
5,O=C(CSc1nnnn1-c1cccc2ccccc12)N1CCOCC1,"inconclusive: 39.8 µM [activator, partial curve, poor fit]"
6,Cc1cc2ccccn2c1C(=S)NC(=O)c1ccccc1,inactive
7,O=C(N/N=C1\CCc2ccccc21)c1ccccc1Cl,active: 10 µM
8,Cc1ccc(C)c(OCC(=O)Nc2ccc3c(c2)OCO3)c1C,"inconclusive: 2.51 µM [activator, partial curve, poor fit]"
9,O=C(Cc1ccccc1)Nc1cccc(C(=O)O)c1O,"inconclusive: 1.41 µM [activator, single point]"
10,CC(C)(C)N(Cc1ccccc1)C(=O)CSc1nc2ccccc2c(=O)[nH]1,"inconclusive: 1.78 µM [activator, full curve]"
11,COc1ccc(/C=C/C(=O)c2ccc(O)cc2O)cc1,inactive
12,CCn1c(/C=C/c2ccccc2)nc2ccccc21,active: 7.08 µM
13,C/C(=N/NC(=O)c1cnccn1)c1cccs1,active: 8.91 µM
14,Cc1c(N)cccc1Cl,inactive
15,COc1ccc2nc(NC(=O)Nc3cccc4ccccc34)sc2c1,"inconclusive: 15.8 µM [activator, partial curve]"
16,CC1CN(CC(=O)c2c(N)n(Cc3ccccc3)c(=O)n(C)c2=O)CC(C)O1 (stereo not drawn),"inconclusive: 3.98 µM [activator, full curve, poor fit]"
17,Clc1ccccc1CSc1ncn(-c2ccccc2)n1,active: 22.4 µM
18,NC(N)=N/N=C/c1ccc(OS(=O)(=O)c2ccccc2)cc1,"inconclusive: 0.794 µM [activator, single point]"
19,O=C(NCc1ccccc1)c1nc(-c2cccs2)no1,"inconclusive: 35.5 µM [activator, partial curve]"
20,CN(CCC#N)C(=O)COC(=O)c1ccc(Cl)c(S(N)(=O)=O)c1,"inconclusive: 0.0112 µM [activator, full curve, poor fit]"
21,Cc1ccc(Cl)cc1N1CCN(C(=O)c2ccc3c(c2)N(Cc2ccccc2F)C(=O)c2ccccc2S3(=O)=O)CC1,inactive
22,CCc1c(C)nc2cc(-c3cccs3)[nH]n2c1=O,"inconclusive: 20 µM [activator, partial curve, poor fit]"
23,CCCOc1ccc(C(=O)Nc2ccc(Cl)cn2)cc1,"inconclusive: 7.08 µM [activator, partial curve, poor fit]"
24,COc1ccccc1CN1CC[C@@]2(CCCN(C(=O)c3cccn3C)C2)C1,inactive

# Source: PubChem BioAssay AID1458 (National Center for Advancing Translational Sciences (NCATS), 2008)
